In paper PMC4336329 (PLoS ONE, 2015):
The campaign covered roughly 310,000 compounds. About 14,000 (4.5%) showed an effect of 50% or more. Effects have a minus sign here. The list shows a part of the results.

biological target: human ether-à-go-go-related gene (hERG) potassium channel (human, UniProt Q12809); assay: primary screen, population patch clamp on CHO cells stably expressing hERG
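Note: peak tail current of the secondary pulse compared with the same well before compound.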

human ether-à-go-go-related gene (hERG) potassium channel, sequence (Q12809 whole entry, looked up): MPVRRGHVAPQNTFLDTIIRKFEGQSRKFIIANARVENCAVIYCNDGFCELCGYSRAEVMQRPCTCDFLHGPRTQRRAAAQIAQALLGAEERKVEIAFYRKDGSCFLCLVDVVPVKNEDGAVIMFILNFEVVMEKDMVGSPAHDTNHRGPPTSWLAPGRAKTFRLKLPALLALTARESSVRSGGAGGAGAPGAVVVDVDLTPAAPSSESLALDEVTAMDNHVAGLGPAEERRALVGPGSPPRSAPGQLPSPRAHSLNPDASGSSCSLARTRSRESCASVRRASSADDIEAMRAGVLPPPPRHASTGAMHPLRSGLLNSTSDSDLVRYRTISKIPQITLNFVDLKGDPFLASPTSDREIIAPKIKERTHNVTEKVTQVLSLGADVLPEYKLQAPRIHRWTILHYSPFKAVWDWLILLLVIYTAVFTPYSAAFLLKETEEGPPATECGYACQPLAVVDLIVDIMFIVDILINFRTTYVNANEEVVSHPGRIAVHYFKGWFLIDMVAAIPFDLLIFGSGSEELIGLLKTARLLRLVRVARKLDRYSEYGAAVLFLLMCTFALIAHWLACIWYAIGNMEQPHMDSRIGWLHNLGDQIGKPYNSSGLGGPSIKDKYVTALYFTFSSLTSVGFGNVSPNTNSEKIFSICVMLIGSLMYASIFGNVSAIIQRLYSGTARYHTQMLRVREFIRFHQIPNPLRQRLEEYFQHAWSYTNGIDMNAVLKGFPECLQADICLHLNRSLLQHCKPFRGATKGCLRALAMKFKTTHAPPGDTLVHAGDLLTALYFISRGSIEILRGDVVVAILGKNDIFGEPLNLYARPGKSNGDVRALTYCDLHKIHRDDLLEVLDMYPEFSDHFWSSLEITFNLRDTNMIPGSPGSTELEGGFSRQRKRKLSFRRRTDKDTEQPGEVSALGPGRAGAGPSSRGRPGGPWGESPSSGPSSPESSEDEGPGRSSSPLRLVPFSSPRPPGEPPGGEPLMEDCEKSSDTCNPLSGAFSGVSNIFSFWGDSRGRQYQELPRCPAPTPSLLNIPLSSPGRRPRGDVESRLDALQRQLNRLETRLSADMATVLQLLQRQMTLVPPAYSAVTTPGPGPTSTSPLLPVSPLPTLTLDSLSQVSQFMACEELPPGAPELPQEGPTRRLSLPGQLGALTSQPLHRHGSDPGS

Row | Compound | hERG current change (%, negative = inhibition) at 10uM [%]
1 | CCOC(=O)N1CCC(NS(=O)(=O)c2ccc3c(c2)OCC(=O)N3)CC1 | 2.11
2 | CCN(CC)CCCNC(=O)c1ccc(Cl)c(S(=O)(=O)Nc2ccccc2OC)c1.Cl | -20.3
3 | O=C(Nc1ccccc1)OCC1CCCN2CCCCC12 (stereo not shown) | -39.4
4 | O=C(COC(=O)c1cncc(Br)c1)NCC1CCCO1 (stereo not shown) | 6.98
5 | CSc1cc(-c2ccc(Cl)cc2)c(C(=O)N2CCCC2)s1 | -46.8
6 | Cc1ccc(N2C(=O)C3C=NNC3C2=O)cc1 (stereo not shown) | 23.1
7 | C/C(N)=C(/C#N)C(=O)COC(=O)CNS(=O)(=O)c1c(F)cccc1F | 15.9
8 | COC(=O)c1cccn(CC(=O)c2ccc(Cl)cc2)c1=O | -41.6
9 | O=C(c1cccc(S(=O)(=O)N2CCc3ccccc32)c1)N1CCCC(C(F)(F)F)C1 (stereo not shown) | -25
10 | COC(=O)c1sccc1NC(=O)c1cc(-c2ccc(C)cc2)nc2ccccc12 | 21.2
11 | CCOc1ccc(N2CC(NC(=O)c3cccc4ccccc34)CC2=O)cc1 (stereo not shown) | 3.75
12 | O=C(N/N=C/c1cc(Cl)cc([N+](=O)[O-])c1O)c1ccccc1NS(=O)(=O)c1cccs1 | 3.95
13 | Fc1ccc2c(Cl)c(-c3nnc(-c4cccs4)o3)sc2c1 | 19.5
14 | Cc1c([N+](=O)[O-])ccc(S(=O)(=O)N2CCC(C(N)=O)CC2)c1C | -5.35
15 | CCn1cc(CCCC(=O)NCc2ccccc2OC)c2ccccc21 | 7.27
16 | CCCc1nc2oc3c(OCC)ncnc3c2c2c1COC(C)(C)C2 | -13.2
17 | CC(=O)Oc1ccccc1N1C(=O)c2ccc(C(=O)O)cc2C1=O | 11.3
18 | COc1ccc2c(C(=O)c3ccc(C)cc3)n(CCC(N)=O)[n+]([O-])c2c1 | -6.56
19 | O=C(O)C1CCCCC1C(=O)NCCc1ccccc1 (stereo not shown) | 1.68
20 | CN(C(=O)c1ccc(NC(=O)Cc2ccc(NC(=O)C3CCN(C(=O)CCc4ccccc4)CC3)cc2)cc1)C1CC1 | 9.51
21 | CCOC(=O)Cn1c(=O)c2c(nc(Br)n2Cc2ccc(Cl)cc2)n(C)c1=O | -18.3
22 | Cc1c(NC(=O)CSc2nnnn2Cc2ccccc2)c(=O)n(-c2ccccc2)n1C | -6.71

Row | Compound | hERG current change (%, negative = inhibition) at 10uM [%]
23 | O=C(C[n+]1cccc(NC(=O)c2ccccc2)c1)c1ccccc1.[Br-] | -18.1
24 | Cc1cccc(C)c1NC(=O)C(c1ccccc1)N1CC(=O)Nc2ccccc21 (stereo not shown) | -5.07
25 | COc1cccc(NC(=O)C(=O)N/N=C/c2cc(C)n(-c3ccc(Cl)c(Cl)c3)c2C)c1 | 8.18
26 | CC(C)(C)c1ccc(OC2=CS(=O)(=O)c3ccccc32)cc1 | 8.82
27 | CC(C)CC(=O)c1c[nH]c(C(=O)NCCCN2CCOCC2)c1 | 1.81
28 | CC(=O)Nc1c(C)nn(-c2ccc([N+](=O)[O-])cc2)c1C | 14.9
29 | CCOc1ccc(NC(=O)C(C)SC(N)=O)cc1 (stereo not shown) | -11.4
30 | CCOC(=O)c1c(C)n(C)c2ccc(OCC(O)Cn3c(C)nc4ccccc43)cc12 (stereo not shown) | -12.5
31 | Cc1ccc(-c2cc3nc(-c4ccccc4)cc(N)n3n2)cc1 | 10.2
32 | N#Cc1c(-c2ccc(F)cc2)noc1N | 4.96
33 | O=C(CN1C(=O)NC2(CCCCC2)C1=O)Oc1ccc2ccc(=O)oc2c1 | -0.0266
34 | O=c1onc(-c2c(F)cccc2F)n1-c1ccccc1Cl | 16.6
35 | Cc1ccc(C(C)NC(=S)NCc2ccc(F)cc2)cc1C (stereo not shown) | -31
36 | Cc1ccc(CSCC(=O)N2CCN(Cc3ccc4c(c3)OCO4)CC2)cc1 | -48.4
37 | CCOc1ccc(OCCC(=O)OCC(=O)Nc2cc(S(=O)(=O)N3CCOCC3)ccc2C)cc1 | 12.2
38 | Cc1ccc(C(=O)Nc2ccc3nccnc3c2)cc1 | 2.22
39 | CCCNC(=O)c1cc2nc(-c3ccccc3)cc(C(F)(F)F)n2n1 | 11.2
40 | Cn1c(Cn2cnc([N+](=O)[O-])n2)nnc1SCC(=O)Nc1ccc(Br)cc1 | 6.97
41 | N#Cc1ccccc1NC(=O)Nc1cccs1 | 18.2
42 | O=C(CN1C(=O)NC2(CCCCC2)C1=O)N1CCN(S(=O)(=O)c2cccc([N+](=O)[O-])c2)CC1 | -1.76
43 | CCCc1c(C(=O)N/N=C/c2ccccc2OCc2ccc(F)cc2)nnn1-c1nonc1N | 18.6
44 | O=C(NCC(c1cccs1)N1CCOCC1)c1ccc(Cl)c(S(=O)(=O)N2CCOCC2)c1 (stereo not shown) | -14.7

Row | Compound | hERG current change (%, negative = inhibition) at 10uM [%]
45 | Cc1ccc(S(=O)(=O)NCc2nc3ccccc3[nH]2)cc1 | 1.83
46 | O=C(Nc1ccc(Cl)cc1)C1CCCN1C(=O)NCc1ccccc1 (stereo not shown) | 10.2
47 | CC1(c2nnc(Cc3ccccc3)o2)CC(c2ccc(F)cc2)=NO1 (stereo not shown) | -8.08
48 | COc1cccc(S(=O)(=O)NCc2ccc(C(=O)Nc3ccc(Cl)c(Cl)c3)cc2)c1 | -0.604
49 | COC(=O)[C@H](C)NC(=O)NC1CCCc2ccccc21 (stereo partly shown) | -4.21
50 | COc1ccc2cc(C(N)=O)c(=Nc3ccc(C)cc3)oc2c1 | 7.06
51 | CCCn1c(SCC(=O)N2CCc3ccccc3C2)nc2c1c(=O)n(C)c(=O)n2C | -29.2
52 | CC(CCN1C(N(C)C)=NC[C@@H]1C)c1ccccc1 (stereo partly shown) | -6.23
53 | CC(C)n1c(SCC(=O)Nc2ccccc2N2CCCCC2)nc2c1c(=O)n(C)c(=O)n2C | -36.7
54 | Cc1oc(C(C)(C)C)cc1C(=O)N1CCN(c2ncccc2C(F)(F)F)CC1 | -13.9
55 | CCOC(=O)c1c(C)nc(C)c(C(=O)OCC)c1-c1ccc(Br)cc1 | -29.7
56 | O=C(Cc1ccccc1)N/N=C/c1cccc([N+](=O)[O-])c1 | 6.9
57 | CC(=O)O[C@H]1C[C@@H]2CC[C@@H]3[C@H](CC[C@@]4(C)[C@H]3C[C@H]([N+]3(C)CCCCC3)[C@@H]4OC(C)=O)[C@@]2(C)C[C@@H]1[N+]1(C)CCCCC1.[Br-] | 10.9
58 | C=CCn1c(SCC(=O)N(CC)C2CCS(=O)(=O)C2)nc2sc3c(c2c1=O)CCC3 (stereo not shown) | -46.7
59 | COC(=O)c1cc(C(=O)Nc2cc(C)ccn2)cc([N+](=O)[O-])c1 | 10.3
60 | C#Cc1cccc(-n2nnc(C(C)=O)c2C)c1 | 15.5
61 | CN(C(=O)Cn1nnc(-c2cccnc2)n1)C1CCCCC1 | 2.31
62 | CCC(CO)NC(=O)c1ccccc1C(F)(F)F (stereo not shown) | 2.26
63 | Cc1cccc(NC(=O)c2nc[nH]c2C(=O)N[C@@H](CC(C)C)C(=O)OCc2ccccc2)c1 | 3.12
64 | CC(C)CC(C(=O)Nc1ccc2c(c1)OCCO2)N1C(=O)c2ccccc2C1=O (stereo not shown) | 3.41
65 | O=C(CSc1oc(-c2cccs2)nc1S(=O)(=O)c1ccc(F)cc1)NCC1CCCO1 (stereo not shown) | -26.7
66 | COc1ccc(-c2noc(CN3CCN(C(=O)c4cccs4)CC3)n2)c(OC)c1OC | -15.7

Row | Compound | hERG current change (%, negative = inhibition) at 10uM [%]
67 | O=[N+]([O-])c1cc(/C=N/N2CCOCC2)cs1 | 9.76
68 | O=C(CCc1nnc(CCCc2ccccc2)o1)NCC(F)(F)F | 12.3
69 | COc1ccc(OCC(=O)Nc2ccc(N3CCN(Cc4ccccc4F)CC3)cc2)cc1 | 6.66
70 | COc1ccc(N2CCN(C(=O)CNC(=O)c3cccs3)CC2)cc1 | 10.9
71 | COc1cccc(CNC(=O)c2ccc(OCC(=O)N3CCOCC3)c(OC)c2)c1 | 20.1
72 | NC(=O)C1CCN(c2ccc(C(F)(F)F)cn2)CC1 | 18.1
73 | O=S(=O)(Nc1nc2ccccc2nc1NCC1CCCO1)c1cc(Cl)ccc1Cl (stereo not shown) | -19.7
74 | COc1ccc(CCn2ccc(O)c(Cc3ccc(Cl)cc3Cl)c2=O)cc1OC | -10.3
75 | CCC(Sc1nnc(-c2ccco2)n1C)C(=O)Nc1nnc(C)s1 (stereo not shown) | 12.8
76 | OC(COc1ccc2c(c1)CCC2)Cn1cnc2ccccc21 (stereo not shown) | 7.51
77 | COc1ccc(C2CC(=O)C3=C(C2)Nc2ncnn2C3c2ccccc2C)c(OC)c1 (stereo not shown) | -12
78 | Cc1cc(NC(=O)c2ccc3c(c2)C(=O)N(C)C3=O)no1 | 15
79 | Cc1cc(C)cc(-n2c(C)cc(/C=N/NC(=O)CN(c3c(C)cccc3C)S(C)(=O)=O)c2C)c1 | 16.4
80 | O=C1C2CC=CCC2C(=O)N1Cc1ccccc1 (stereo not shown) | 2.21
81 | CN1CCN(NS(=O)(=O)c2ccc(Cl)cc2)CC1 | 19.4
82 | CCOC(=O)/C(=N/Nc1ccc(Cl)cc1)S(=O)(=O)c1ccccc1 | -9.5
83 | Cc1cc(C)n(Cc2ccc(NC(=O)c3ccc(COc4ccccc4Br)cc3)cc2)n1 | -11.2
84 | O=C(C1CCCN(S(=O)(=O)c2ccccc2)C1)N1CCN(c2ncccn2)CC1 (stereo not shown) | -32.6
85 | O=c1[nH]ncc(NCCc2ccccc2)c1Cl | 17.5
